# Measurements published in PubChem BioAssay AID686979 (National Center for Advancing Translational Sciences (NCATS), 2013).
# “And” between values parts separate entries of the source, which are not always exact repeats. Equal entries are not always repeated. Out of some 420,000 compounds screened, about 50,000 (12%) were called active. The shares of active, inactive and inconclusive entries below differ from those in the screen. Calls follow the shape of the dose curve; as a rule, active = well fitted inhibition curve with a large enough effect; inconclusive = small, poorly fitted or top-dose-only effect; inactive = flat fitted curve, though single readings scatter. A potency beside an inconclusive call is a rough fit, not a confirmed value.
# Assay: qHTS for Inhibitors of human tyrosyl-DNA phosphodiesterase 1 (TDP1): qHTS in cells in presence of CPT; also: nearly all actives have a fitted effect of over 55% in size
# Conditions: chicken DT40 Tdp1-/-;hTDP1 cells + 20 nM CPT, ATP luminescence, 48 h; activity change, negative = growth inhibition: at 46.2 µM (top of the series)
# In short: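 Chicken DT40 Tdp1-/- cells stably complemented with human TDP1 were seeded at 400 cells/well in medium containing 20 nM camptothecin, exposed to pin-transferred compounds, and grown at 37 °C for at least 48 hr. Viability was read as ATP luminescence.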
# % is scaled to controls: 0 for no effect and ±100 for the full control effect; potency is read from the fitted curve at half-maximal effect; tags tell the direction and shape of the fitted curve.
SMILES,Potency,"activity change, negative = growth inhibition"
COc1cc(S(=O)(=O)N(Cc2ccccn2)Cc2ccccc2Cl)ccc1-n1cnnn1,"inconclusive: 18.4 µM [inhibitor, single point]",–
CCOc1ccccc1-c1nc2c(s1)CCc1onc(-c3ccc(OC)cc3)c1-2,"inconclusive: 29.1 µM [inhibitor, single point]",–
O=S1(=O)CCO[C@H]2Cc3ccccc3[C@H]2N1Cc1cccc(C(F)(F)F)c1,"inconclusive: 20 µM [inhibitor, partial curve, poor fit] and inconclusive: 29.1 µM [inhibitor, single point]",–
CC(=O)c1c(C)[nH]c(C(=O)OCc2nnc(-c3ccccc3)o2)c1C,"inconclusive: 23.1 µM [inhibitor, single point]",–
O=c1oc2cc(Oc3c([N+](=O)[O-])cc(C(F)(F)F)cc3[N+](=O)[O-])ccc2c2c1CCCC2,active: 8.2 µM,–
CCOC(=O)c1cc(-c2ccc(C)cc2)n(CCCC(=O)Nc2cc(C)ccc2C)c1,"inconclusive: 18.4 µM [inhibitor, single point]",–
Cc1ccn(CCC(=O)NC2CC(C)(C)Cc3c2cnn3-c2ccccc2C)n1 (stereo not given),"inconclusive: 11.6 µM [inhibitor, partial curve]",–
COc1ccc(Cn2ccc3nc(C)c(C(=O)Nc4cc(OC)c(OC)c(OC)c4)cc3c2=O)cc1,"inconclusive: 29.1 µM [inhibitor, single point]",–
CCOc1ccccc1NS(=O)(=O)c1cc2[nH]c(=O)c(=O)[nH]c2cc1C,–,inactive: 2.66%
Oc1ccc(C[C@H]2CN([C@@H](Cc3ccccc3)CN3CCCC3CN3C(=S)NC[C@@H]3Cc3ccccc3)C(=S)N2CC2CCCCC2)cc1 (stereo not given in full),"inconclusive: 20.6 µM [inhibitor, single point]",–
CCCCn1c(CN(Cc2ccccc2)Cc2ccccc2)nc2c1c(=O)n(C)c(=O)n2C,active: 13 µM,–
COc1ccc(N=Cc2c(O)[nH]c3ccccc23)cc1OC,–,inactive: -29%
CCc1ccc(CN(C)C(=O)CCc2nnc(CCc3ccccc3OC)o2)nc1,–,inactive: -23.8%
COCCCn1c(=N)c(C(=O)NC2CCCC2)cc2c(=O)n3cccc(C)c3nc21,"inconclusive: 29.1 µM [inhibitor, single point]",–
CCCC/C(C)=N/NC(=O)CN(c1ccc(Br)cc1)S(=O)(=O)c1ccccc1,–,inactive: -16.7%
Cc1ccc2nc(-c3ccc(F)cc3)c(Cc3ccccn3)n2c1,"inconclusive: 32.6 µM [inhibitor, single point]",–
CCOc1ccc(Sc2cc(C(=O)NCc3ccc(C)cc3)c3ccccc3n2)cc1,–,inactive: -23.5%
CCCCC(=O)N1CCc2cc(OC)c(OC)cc2C1COc1ccc(C(=O)OCC)cc1 (stereo not given),"inconclusive: 20.6 µM [inhibitor, single point]",–
COc1ccc(NS(=O)(=O)c2ccc(NC(=S)NC(=O)/C=C/c3ccc(C)cc3)cc2)nn1,"inconclusive: 23.1 µM [inhibitor, single point]",–
CCOc1c(OC(C)=O)ccc(/C=C/c2ccc3cccc(OC)c3n2)c1[N+](=O)[O-],"inconclusive: 16.4 µM [inhibitor, partial curve]",–

SMILES,Potency,"activity change, negative = growth inhibition"
CCCCOc1ccccc1C1NC(=O)NC(C)=C1C(=O)OCc1ccco1 (stereo not given),"inconclusive: 29.1 µM [inhibitor, single point]",–
CCN(CC)C(=S)SCC(=O)NC12CC3CC(CC(C3)C1)C2,"inconclusive: 20.6 µM [inhibitor, single point]",–
CCc1ccc(C2CC3C(CN2S(=O)(=O)c2ccc(C)cc2)[C@@H](O)C[C@@H](c2ccc(CC)cc2)N3S(=O)(=O)c2ccc(C)cc2)cc1 (stereo not given in full),"inconclusive: 16.4 µM [inhibitor, single point]",–
COC(=O)c1scc(-c2ccc(C)cc2)c1S(=O)(=O)N1CCN(c2ccc(F)cc2)CC1,active: 8.2 µM,–
O=C(Nc1ccc(F)cc1)Nc1ccc2c(c1)OCO2,active: 9.2 µM,–
CC(C)(C)C1CCc2c(sc3nc(SCC(N)=O)nc(N)c23)C1 (stereo not given),active: 16.4 µM,–
CCCN1C(=O)c2cc(C(=O)NC3CCCCCC3)ccc2C1O (stereo not given),"inconclusive: 6.51 µM [inhibitor, full curve, poor fit]",–
Cc1nc2ccccc2nc1/C=C/c1ccc(N(C)C)cc1,active: 0.501 µM,–
CCn1cc(C(=O)OCC(=O)Nc2cc(S(=O)(=O)N(C)C)ccc2C)c(=O)c2ccc(C)nc21,"inconclusive: 29.1 µM [inhibitor, single point]",–
O=C(NC1CCCCC1)c1ccc(CSc2nc3cccnc3n2Cc2cccc(F)c2)cc1,active: 10.3 µM,–
CSCC(C)N1CCC(n2nccc2NC(=O)c2ccccc2C)CC1 (stereo not given),–,inactive: -4.34%
CCCCn1c(N)c(N(CCOC)C(=O)c2cnc(C)cn2)c(=O)[nH]c1=O,–,inactive: 5.92%
Cc1cc(C)c(S(=O)(=O)NCCc2sc3nc(-c4ccc(F)cc4)nn3c2C)c(C)c1,"inconclusive: 18.4 µM [inhibitor, single point]",–
CCOC(=O)[C@]12CCCC=C1N(Cc1ccco1)C(=O)[C@H](CC(=O)NCc1ccc(OC)c(OC)c1)C2,"inconclusive: 29.1 µM [inhibitor, single point]",–
CCOc1ccc(NC(=O)c2ccc3c(c2)OCCO3)cc1S(=O)(=O)N(CC)CC,"inconclusive: 29.1 µM [inhibitor, single point]",–
Nc1[nH]c(C(=O)c2ccccc2)c(-c2ccncc2)c1C(=O)NCCc1c[nH]c2ccccc12,"inconclusive: 16.4 µM [inhibitor, single point]",–
CCC1CCCCN1C(=S)Nc1ccc(S(=O)(=O)Nc2ncccn2)cc1 (stereo not given),–,inconclusive: -34.1% [inhibitor]
COc1ccc2nc(N3C(=O)/C(=C/c4ccc(Cl)cc4)NC3=S)sc2c1,"inconclusive: 29.1 µM [inhibitor, single point]",–
COc1cccc(-c2cc3nc4c(c(N5CCC6(CC5)OCCO6)n3n2)CCCC4)c1,active: 23.1 µM,–
Cc1cc(Br)cn2c(CC(C)(C)C)c(C3CCCCC3)nc12,"inconclusive: 18.4 µM [inhibitor, single point]",–
